# Experimental data published in ChEMBL document CHEMBL4888484, “Replenishing the malaria drug discovery pipeline: Screening and hit evaluation of the MMV Hit Generation Library 1 (HGL1) against asexual blood stage Plasmodium falciparum ,using a nano luciferase reporter read-out” (2022).
# Out of some 150,000 compounds screened, about 540 (0.36%) showed an effect of 50% or more. This is one part of the list.
# Test system: Plasmodium falciparum
# Test: Primary screen in NF54 nanoGlo assay, in single point, at 2uM, 72h; a lower Z score goes with more inhibition
# Type: functional, Erythrocyte
# Conditions: timepoint 72 hour
Compound,% Inhibition [%],Z score
Cc1nc(C(=O)N2CCc3[nH]c4c(Cl)cccc4c3C2)cs1,9,-1.27
Cc1n[nH]c(C)c1CNC(=O)c1ccco1,-14,1.92
N#Cc1c(F)c(F)c(F)c(F)c1C#N,-7,1.11
C#C[C@H](C)OC(=O)c1cnn(C(C)(C)C)c1,0,0.01
O=C(Cn1ncnn1)NC1(c2cc(C(F)(F)F)ccc2Cl)CC1,0,0.05
c1ccc2nc(-c3nccn3-c3ccc4[nH]nnc4c3)ccc2c1,-15,2.22
CCc1ccc(CS(=O)(=O)N2CCN(c3cnccc3C)CC2)cc1,-8,1.03
CCNc1nc(C)c(C(=O)N(C)CCOc2c(C)cccc2C)s1,2,-0.33
COc1cccc(NC(=O)Cc2c(C)nc(C)[nH]c2=O)c1,-10,0.92
CC(C)O[C@H]1C[C@@H](NC(=O)c2ccccc2N(C)C)C1,-5,0.97
NS(=O)(=O)c1ccc(Br)cc1Cl,-10,1.51
Cc1nc2c(cc1C(=O)NCCn1nc3c(cc1=O)CCC3)c(=O)n(C)c(=O)n2C,11,-1.45
CCC(NC1CCCN(C(=O)OC(C)(C)C)CC1)c1ccncc1 (stereo not drawn),-3,0.37
Cc1cc(CC(=O)NCC2CCN(c3nc4ccccc4o3)CC2)on1,-15,2.69
O=C(NCC(c1ccc(C(F)(F)F)cc1)N1CCOCC1)C1CC2CCC1C2 (stereo not drawn),-10,1.48
CCOCc1nc2c(c(N3CC[C@H](NC(C)=O)C3)n1)CCN(C)CC2,-16,2.41
CN(C(=O)OCC(F)(F)F)C1CCCCC1,0,0.05
Cc1cc(C(F)(F)F)n(C[C@@H](C)CNC(=O)c2cccn3cnnc23)n1,-7,1.27
CCCCCOCC(=O)N[C@@H](C)c1cnccn1,-10,1.99
Cc1cc(C)nc(N2CCN(c3nc(N)nc4c3CCNC4)CC2)n1,-15,1.86
Cc1sc(-c2nnc(C(=O)N3CCCCC3)o2)cc1S(=O)(=O)Nc1cccc(F)c1,-14,2.02
COC(=O)N1CCN(C(=O)CCN(Cc2ccccc2)C(C)=O)CC1,-7,0.71
CC(C)N(Cc1ccccc1OS(C)(=O)=O)C(=O)NC(C)(C)C,-1,0.15
Cc1ccc(-c2nc(Cn3cnc4nc5c(cc4c3=O)C[C@@H](C)CC5)c(C)o2)cc1,-5,0.64
